Source: publication PMC6919601, “Identification of Plasmodium dipeptidyl aminopeptidase allosteric inhibitors by high throughput screening” (PLoS ONE, 2019)
The campaign covered roughly 110,000 compounds. About 230 (0.21%) showed an effect of 50% or more. The list shows a part of the results.

What follows are molecules tested against DPAP1 (Plasmodium falciparum, UniProt Q8IIJ9) (assay: primary screen, percent inhibition; read by cleavage of a fluorogenic dipeptide substrate; higher = more effect of the substance).
Sequence of DPAP1 (Q8IIJ9 whole entry, looked up): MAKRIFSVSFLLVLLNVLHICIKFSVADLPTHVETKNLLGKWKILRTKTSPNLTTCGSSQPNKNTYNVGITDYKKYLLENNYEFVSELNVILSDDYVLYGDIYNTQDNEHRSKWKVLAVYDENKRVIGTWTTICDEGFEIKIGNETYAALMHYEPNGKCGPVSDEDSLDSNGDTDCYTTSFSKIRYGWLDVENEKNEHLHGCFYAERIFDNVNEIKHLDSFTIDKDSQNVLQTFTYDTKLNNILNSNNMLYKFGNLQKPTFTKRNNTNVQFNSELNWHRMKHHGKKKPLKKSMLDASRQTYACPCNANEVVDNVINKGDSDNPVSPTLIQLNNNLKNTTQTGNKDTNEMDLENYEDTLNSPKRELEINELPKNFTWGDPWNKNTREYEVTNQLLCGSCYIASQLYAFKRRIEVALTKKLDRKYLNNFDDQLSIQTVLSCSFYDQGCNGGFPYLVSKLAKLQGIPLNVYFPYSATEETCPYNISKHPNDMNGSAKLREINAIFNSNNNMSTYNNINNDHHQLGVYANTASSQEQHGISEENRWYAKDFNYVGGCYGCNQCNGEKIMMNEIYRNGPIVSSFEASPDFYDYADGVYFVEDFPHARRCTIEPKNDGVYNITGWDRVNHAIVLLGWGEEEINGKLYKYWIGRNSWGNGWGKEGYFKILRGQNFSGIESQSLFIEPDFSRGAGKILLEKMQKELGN
Set-up: species or system P. falciparum D10 trophozoite lysates; single well
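Note: 30 min substrate incubation versus DMSO and 10 µM JCP410 controls.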

Structure (SMILES)	% Inhibition @ 10 uM [%]
Cc1noc(C)c1S(=O)(=O)N1CCC(C)CC1	-6.29
CC1CCC(c2ccc(O)cc2)(c2ccc(O)cc2)CC1	2.6
O=C(O)/C=C/C(=O)Nc1ccc(N2CCOCC2)cc1	-1.25
COc1ccc(C2CC(=O)c3cnc(NC(C)=O)nc3C2)cc1 (stereo not drawn)	-1.2
CC(=O)O/N=C(/c1ccc(Cl)cc1Cl)N1CCCCC1	-4.24
O=C1N(Cc2cccc3ccccc23)c2ccccc2C1(c1ccc(O)cc1)c1ccc(O)cc1	-1.77
CC(=O)c1c(C)oc2ccc(NS(=O)(=O)c3ccc(Cl)cc3)cc12	-6.29
CC1CN(Cc2ccc3ccccc3c2)CC(C)O1 (stereo not drawn)	1.9
O=C(CCNC(=O)Cn1ccc2ccccc2c1=O)NCc1ccccn1	4.14
Cc1ccc2c(n1)sc1c(O)cc(O)nc12	1.76
O=C(NCCC1=CCCCC1)C(Cc1ccccc1)NS(=O)(=O)c1cccc2nsnc12 (stereo not drawn)	5.21
COc1ccccc1CN1CCN(c2ccccc2C)CC1	2.47
COc1ccc(-c2nc(CS(=O)CC(=O)NCCCN3CCOCC3)c(C)o2)cc1OC (stereo not drawn)	-4.71
Cc1c(Cl)cccc1-n1nnc(-c2nc(-c3cccs3)no2)c1N	0.0603
CC1CCCN(C(=O)Cc2ccccc2)C1 (stereo not drawn)	1.9
CCc1ccc(Oc2nc3c(C)cccn3c(=O)c2/C=C(\C#N)C(=O)NCC2CCCO2)cc1 (stereo not drawn)	-1.43
CCN(c1ccccc1)S(=O)(=O)c1ccc(NC(=O)c2ccc(Br)o2)cc1	-3.34
COc1ccc(CN2CCN(c3ccccc3F)CC2)cc1C	-6.36
CCn1cc(NC(=O)NC2CCc3ccccc32)c(=O)c2ccc(C)nc21 (stereo not drawn)	6.92
Cc1cccc2sc(NC(=O)Cc3ccccc3F)nc12	4.1
O=C(c1ccco1)c1cn(CC(=O)N2CCOCC2)c2ccccc12	-5
CC(=O)c1ccc(NC(=O)Cn2ccnc2)cc1	-6.71
COCCNCc1c(C(=O)O)c(C)n(Cc2c(F)cccc2Cl)c1C	10.2
CCOC(=O)c1c(C)[nH]c(C)c1S(=O)(=O)N(C)CC(=O)NC1CCCc2ccccc21 (stereo not drawn)	-1.59
COC(=O)c1sc(NC(=O)C2C3CCC(O3)C2C(=O)O)nc1C (stereo not drawn)	10.8
Cn1c(=O)c2c(-c3ccccc3Cl)n(CCc3ccccc3)cc2n(C)c1=O	0.366

Structure (SMILES)	% Inhibition @ 10 uM [%]
CC(Oc1ccccc1F)C(=O)Nc1cccc(C(F)(F)F)c1 (stereo not drawn)	3.74
O=C(O)CCCCCNC(=O)Cc1ccccc1	-5.5
CCCC/N=c1/c(N2CCN(C(=O)OCC)CC2)c(O)c1=O	-3.21
COc1ccccc1NC(=O)Cc1c(OC)ccc2cc(Br)ccc12	-5.48
Cc1oc(-c2ccc(C(=O)NCCCc3ccccc3)cc2)nc1CS(=O)(=O)c1ccccc1	-6.11
COC(=O)c1ccccc1C(=O)Nc1ccc(Br)cn1	-6.07
C=Cc1ccc(Cn2c(C)c(CNCc3ccccc3)c(C(=O)O)c2C)cc1	-9.31
O=C(NCc1ccco1)Nc1cccs1	-1.11
CCOc1ccc(-c2nnc(NC(=O)C34CC5CC(CC(C5)C3)C4)s2)cc1	4.35
Cc1ccc(S(=O)(=O)Nc2cccc(F)c2)cc1	-1.77
C=CCN1C(=O)S/C(=C\c2cc(Br)cc(OCC)c2O)C1=O	-3.09
Cc1c(CNC(C)C23CC4CC(CC(C4)C2)C3)c(C(=O)O)c(C)n1Cc1ccc(Cl)cc1 (stereo not drawn)	-3.67
COCC(C)NC(=O)COCc1cc(-c2ccco2)on1 (stereo not drawn)	1.34
CN(C)CCNC1CCC(C(C)(C)C)CC1 (stereo not drawn)	1.57
Cc1cccc(C)c1CC(NC(=O)OCc1ccccc1)C(=O)NCC#N (stereo not drawn)	-5.04
NC1=NC(=O)/C(=C\c2cc3ccccc3nc2N2CCCCC2)S1	0.275
CC(=O)Nc1cccc(NC(=O)CSc2nc(C)c(C)c(C)c2C#N)c1	10.4
C/C(Cl)=C/Cn1c(=O)n(C/C=C(/C)Cl)c(=O)n(C/C=C(/C)Cl)c1=O	0.827
COc1cc(CNC2CCCCC2)ccc1OCC(=O)NC(C)(C)C	1.27
CC1=C(C(=O)Nc2cccc(F)c2)C(c2cccnc2)C2=C(O)CC(c3ccccc3)CC2=N1 (stereo not drawn)	-3.46
COc1ccccc1NC(=O)c1c(N)sc2c1CCCCC2	-1.28
O=C1OC(c2ccco2)=N/C1=C\c1cccc(Cl)c1Cl	2.81
Cc1ccc(SC(C)C(=O)NCC(C)C)cc1 (stereo not drawn)	3.05
NC(=O)C1CCN(CC(=O)Nc2cccnc2Cl)CC1	0.776
Cc1nc2cc(C(=O)NCc3ccco3)ccc2n1-c1cccc(F)c1	1.2
CC12OC3(CCCCC3)C(C)(OC13CCCCC3)O2	-0.736

Structure (SMILES)	% Inhibition @ 10 uM [%]
COc1ccccc1-c1nc(-c2ccc(Cl)cc2)no1	-3.77
Cc1ccccc1NC(=O)c1cccc(N2C(=O)C3C4CCC(C4)C3C2=O)c1 (stereo not drawn)	-2.18
OC1CCCN(Cc2ccc(Cl)cc2Cl)C1 (stereo not drawn)	-6.47
O=C(Nc1nnc(-c2ccc(Cl)cc2Cl)s1)c1ccco1	8.97
Cc1ccccc1CSc1ncc(Cl)c(C(=O)NCc2ccc3c(c2)OCO3)n1	-4.54
CC(=O)Nc1ccc(Cc2ccc(NC(C)=O)c(C)c2)cc1C	1.9
CCO/C(O)=C1/C(C)=Nc2nc(SC)nn2C1c1ccccc1OCC (stereo not drawn)	-4.58
c1ccc2c(c1)OCC(c1nnc3sc(-c4ccncc4)nn13)O2 (stereo not drawn)	2.68
NS(=O)(=O)c1ccc(CCNc2ncnc3onc(-c4ccc(Cl)cc4)c23)cc1	-5.76
CCOC(=O)C1CCN(Cc2ccc(O)cc2)CC1	-4.61
COc1ccc(C(=O)Nc2ccc(Cl)c(C(F)(F)F)c2)cc1	-1.25
Cc1ccc(-n2cccc2/C=C2/C(=N)N3C(=NC2=O)SN=C3S(C)(=O)=O)cc1	-1.76
Cc1ccc(S(=O)(=O)c2cnccn2)cc1	1.02
Cc1ccc(C(=O)Nc2nc(-c3nnn(-c4ccc(F)cc4C)c3C)ns2)cc1	-1.73
CC(C)(C)NC(=O)CCSc1nc2cc(Cl)ccc2o1	1.83
COc1ccc(C)cc1N(CC(=O)NCc1cccnc1)S(=O)(=O)c1ccccc1	-4.39
O=C(O)[C@@H]1CSC(c2ccc(Cl)cc2Cl)N1 (stereo partly drawn)	-3.38
CN1CCN(c2ccc3nnc(CCC(=O)N4CCN(C(=O)c5ccco5)CC4)n3n2)CC1	5.05
Cc1onc(-c2ccccc2Cl)c1C(=O)N1CCCCCC1	2.09
CC1CN(C(=O)c2ccccc2Cl)CCN1C(=O)c1ccccc1Cl (stereo not drawn)	3.65
Clc1ccc(CSc2nc[nH]n2)c(Cl)c1	-4.24
O=C(Nc1ccc2c(c1)OCCO2)c1cccc(OC(F)F)c1	0.727
CC(C)c1ccc(NC(=O)c2cccnc2)cc1	-9.68
Cc1ccccc1Cc1c(C)nc2c(C(=O)N3CCN(Cc4ccc5c(c4)OCO5)CC3)cnn2c1C	1.16
Cc1ccc(-c2nnc3n2N=C(c2ccc(Br)cc2)CS3)cc1	10.7
Cn1nc(-c2ccccc2F)c2cc(C(=O)N3CCN(C(=O)c4ccco4)CC3)sc21	0.317

Structure (SMILES)	% Inhibition @ 10 uM [%]
COc1cc(/C=C/c2ccc3cccc(O)c3n2)c(Br)cc1O	-0.85
O=C(Nc1sc2c(c1C(=O)NCc1cccnc1)CCCC2)c1ccc(Br)cc1	0.206
Cc1sc2ncnc(SCC(=O)Nc3ccccc3)c2c1C	0.605
CN1CCN(c2ccc3nnc(CCC(=O)NCc4ccc5c(c4)OCO5)n3n2)CC1	-6.16
Cc1cccc(C)c1NC(=O)CSc1nc2c(cc1C#N)CCC2	4.28
O=C1/C(=C/c2ccco2)CCC/C1=C\c1ccco1	7.5
O=S(=O)(Nc1cccc(NS(=O)(=O)c2ccc(F)cc2)c1)c1ccc(F)cc1	-4.63
COc1ccc(NS(=O)(=O)c2ccc(NC(=O)c3ccc(C(C)(C)C)cc3)cc2)cc1	-2.8
Cc1nn(C)c(C(=O)Nc2cccc(Cl)c2C)c1Cl	-3.26
COc1ccc(C(=O)c2ccccc2C)cc1	1.13
COc1ccc2c(c1)nc(SCc1ccccc1)n2C	3.1
CCc1c(CN(C)Cc2ccccc2)csc1C	2.83
Cc1ccccc1OCC(=O)Nc1ccccc1N1CCOCC1	-4.02
Cn1nc(C(=O)NCc2ccc(F)cc2)c2c1-c1ccccc1S(=O)(=O)C2	-7.98
Cc1ccc(-c2ccc(=O)n(CC(=O)NCCN3CCOCC3)n2)cc1	-1.21
CCOC(=O)c1c(C)oc2c1c(C(c1ccc(OC)cc1)N1CCN(C)CC1)c(O)c1ccccc12 (stereo not drawn)	0.343
CCOc1ccc(C(=O)c2ccc(OCC)c(N)c2)cc1N	-0.76
COc1ccc(C2C(C#N)=C(N)Oc3[nH]nc(-c4ccccc4)c32)cc1OC (stereo not drawn)	4.19
Cn1nc(C(=O)N2CCC(N3CCCCC3)CC2)c2c1-c1ccccc1SC2	0.00665
COc1ccc(C2C(=O)N(C3CCCCCC3)CC(=O)N2Cc2ccc(F)cc2)cc1 (stereo not drawn)	1.16
CCN1CC2=C(OC(N)=C(C#N)C2c2ccccc2C)/C(=C/c2ccccc2C)C1 (stereo not drawn)	4.61
CN(C(=O)c1cccc([N+](=O)[O-])c1)c1ccccc1	7.04
COc1cc(OC)c(CNC2CCCC2)cc1Br	-0.582
Brc1ccc(-c2cn3c4ccccc4n(CCN4CCCCC4)c3n2)cc1	0.345
